Results are given in words; binding and its absence hold for the method and conditions named. In cells and extracts the contact can be indirect. Some entries that bind do so weakly or less than the wild type. Sequences can lack the tags named with a protein.

Amino acid sequences for entries named in this document (tags omitted).
UniProt Q93571: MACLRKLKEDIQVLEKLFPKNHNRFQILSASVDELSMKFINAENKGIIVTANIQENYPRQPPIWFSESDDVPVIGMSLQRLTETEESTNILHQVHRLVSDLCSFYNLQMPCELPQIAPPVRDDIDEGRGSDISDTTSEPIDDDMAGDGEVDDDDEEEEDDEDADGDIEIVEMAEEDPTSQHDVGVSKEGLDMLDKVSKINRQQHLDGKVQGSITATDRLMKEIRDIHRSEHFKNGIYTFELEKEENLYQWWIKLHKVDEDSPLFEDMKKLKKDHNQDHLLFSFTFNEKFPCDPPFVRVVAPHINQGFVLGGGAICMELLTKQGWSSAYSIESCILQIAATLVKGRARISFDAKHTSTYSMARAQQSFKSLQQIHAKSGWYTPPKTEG

The record followed here is article PMC12179603.

The target in assay [1] is T1, FLAG-SIAH-1 (C. elegans) (UniProt Q965X6).
T1 sequence: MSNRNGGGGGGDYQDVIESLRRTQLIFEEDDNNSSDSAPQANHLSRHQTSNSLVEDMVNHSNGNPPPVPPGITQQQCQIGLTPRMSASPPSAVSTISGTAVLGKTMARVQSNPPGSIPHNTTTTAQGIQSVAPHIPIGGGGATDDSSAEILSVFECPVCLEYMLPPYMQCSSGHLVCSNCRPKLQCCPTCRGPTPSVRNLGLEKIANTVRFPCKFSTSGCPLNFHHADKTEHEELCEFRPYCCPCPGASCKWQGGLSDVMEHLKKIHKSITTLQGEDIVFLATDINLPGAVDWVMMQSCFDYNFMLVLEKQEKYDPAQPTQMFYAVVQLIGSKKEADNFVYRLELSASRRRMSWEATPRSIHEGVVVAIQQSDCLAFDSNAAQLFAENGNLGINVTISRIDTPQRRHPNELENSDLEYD
Briefly: co-IP; HEK293 cells transfected with Myc-UBC-25 and FLAG-SIAH-1; lysates 48 h after transfection; IP with anti-FLAG antibody or control IgG, blot with anti-Myc or anti-FLAG.

Assay [2] deals with T2, GST-SIAH-1(192-419) (C. elegans) (UniProt Q965X6).
T2 sequence: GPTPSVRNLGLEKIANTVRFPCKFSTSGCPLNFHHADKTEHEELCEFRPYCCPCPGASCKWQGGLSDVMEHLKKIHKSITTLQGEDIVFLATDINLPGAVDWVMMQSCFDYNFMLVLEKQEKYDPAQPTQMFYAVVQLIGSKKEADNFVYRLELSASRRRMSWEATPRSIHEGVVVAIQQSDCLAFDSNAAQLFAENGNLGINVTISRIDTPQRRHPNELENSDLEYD
The experiment in a line: pull-down; 5 μg purified GST fusion on glutathione-Sepharose beads incubated with HEK293T lysates holding Myc-tagged DVE-1 constructs; washes with 50 mM Tris-HCl pH 7.6, 250 mM NaCl, 0.5% NP-40, 1 mM EDTA; blot with anti-Myc; only the target purified.

Assay [3] has as its target T3, DVE-1::GFP(KI) (C. elegans (endogenous in worms)) (UniProt Q86MI0).
T3 sequence: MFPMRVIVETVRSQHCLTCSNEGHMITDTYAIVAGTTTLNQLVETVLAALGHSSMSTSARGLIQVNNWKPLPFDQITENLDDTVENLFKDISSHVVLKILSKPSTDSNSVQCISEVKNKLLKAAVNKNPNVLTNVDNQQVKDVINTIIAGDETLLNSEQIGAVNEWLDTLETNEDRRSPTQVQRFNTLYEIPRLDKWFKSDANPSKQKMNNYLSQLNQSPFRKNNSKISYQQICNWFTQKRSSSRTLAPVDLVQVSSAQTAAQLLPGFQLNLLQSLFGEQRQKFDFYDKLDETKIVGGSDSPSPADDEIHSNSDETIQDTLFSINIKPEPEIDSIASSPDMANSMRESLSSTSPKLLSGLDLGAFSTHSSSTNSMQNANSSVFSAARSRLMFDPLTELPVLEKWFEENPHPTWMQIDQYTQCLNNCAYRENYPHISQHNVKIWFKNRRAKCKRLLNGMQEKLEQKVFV
The experiment in a line: co-IP; C. elegans worm lysates (with or without 10 μM MG132 before lysis); GFP-Trap Agarose (anti-GFP nanobody) overnight at 4 °C; washes with 50 mM Tris-HCl pH 8.0, 300 mM NaCl; blot with anti-GFP and anti-SIAH-1.

In the case of “Myc-UBC-25 (from UniProt Q93571 1-387) (enzyme)”, the binding entry in assay [1] is on record as “binds”.

B1: Myc-DVE-1(179-468) (domain or fragment, UniProt Q86MI0 179-468)
chain: PTQVQRFNTLYEIPRLDKWFKSDANPSKQKMNNYLSQLNQSPFRKNNSKISYQQICNWFTQKRSSSRTLAPVDLVQVSSAQTAAQLLPGFQLNLLQSLFGEQRQKFDFYDKLDETKIVGGSDSPSPADDEIHSNSDETIQDTLFSINIKPEPEIDSIASSPDMANSMRESLSSTSPKLLSGLDLGAFSTHSSSTNSMQNANSSVFSAARSRLMFDPLTELPVLEKWFEENPHPTWMQIDQYTQCLNNCAYRENYPHISQHNVKIWFKNRRAKCKRLLNGMQEKLEQKVFV
Take B1: the binding entry in assay [2] was “binds”.

B2: Myc-DVE-1(1-178) (domain or fragment, UniProt Q86MI0 1-178)
chain: MFPMRVIVETVRSQHCLTCSNEGHMITDTYAIVAGTTTLNQLVETVLAALGHSSMSTSARGLIQVNNWKPLPFDQITENLDDTVENLFKDISSHVVLKILSKPSTDSNSVQCISEVKNKLLKAAVNKNPNVLTNVDNQQVKDVINTIIAGDETLLNSEQIGAVNEWLDTLETNEDRRS
On to B2, for which the binding entry in assay [2] is reported as “no binding”.

B3: SIAH-1 (full-length, endogenous) (enzyme, UniProt Q965X6 1-419)
chain: T1 sequence
As to B3, the binding entry in assay [3] was “binds”.

B4: Myc-DVE-1 (protein, UniProt Q86MI0 1-468)
chain: T3 sequence
As to B4, in assay [2], the binding entry is given as “binds”.
